# From PubChem BioAssay AID1347417 (National Center for Advancing Translational Sciences (NCATS), 2020)
# About 5,300 (4.4%) of roughly 120,000 compounds were called active. Inconclusive means that the source gave no clear call. Such entries were picked first, then a sample of the others. The call rests on the fitted dose curve; in most records, active means well fitted inhibition curve with a large enough effect; inconclusive means small, poorly fitted or top-dose-only effect; inactive means no such curve, though single readings can be large or run the other way. A potency beside an inconclusive call is a rough fit, not a confirmed value.
# Test: qHTS Primary assay for Inhibitors of Plasmodium falciparum Dd2 growth in vitro; further: nearly all actives have a fitted effect of over 65% in size;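 on activity, negative = inhibition: plate controls were DMSO vehicle for no effect and reference drug for full effect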
# Conditions: P. falciparum Dd2 growth, SYBR Green, 72 h; activity, negative = inhibition: at 28.9 µM (top of the series) unless noted; series mostly up to 28.9 µM
# Summary of the method: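 Infected erythrocytes (Dd2, 0.3% parasitemia, 2.5% hematocrit final) are added to compound in RPMI-1640/Albumax II medium, grown 72 h at 37C in low oxygen, then lysed with saponin/Triton-X containing SYBR Green and read by fluorescence.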
# Potency means the concentration at half of the fitted maximal effect; tags describe the fitted curve by direction and shape.
Compound,Potency,outcome,"activity, negative = inhibition"
COc1ccc(C(=O)N2CCCC(O)(CN3CCCC3)C2)cc1Cl (stereo unspecified),"inconclusive: 0.355 µM [inhibitor, full curve, poor fit]",,
Cc1cccc(C(=O)Nc2ccc3oc(-c4ccncc4)nc3c2)c1,"inconclusive: 11.2 µM [inhibitor, single point]",,
CC(C)(C)C(=O)N1CCCC(c2nn(-c3cccc(Cl)c3)c(=O)[nH]2)C1 (stereo unspecified),"inconclusive: 17.8 µM [inhibitor, single point]",,
CCc1ccccc1NC(=O)c1sc(-n2nc(C)c(Cc3ccc4c(c3)OCO4)c2C)nc1C,active: 3.98 µM,,
COc1ccc(-c2nc3scc(CCNC(=O)c4cc(OC)cc(OC)c4)n3n2)cc1,active: 7.08 µM,,
CCc1nc2c(c(-c3ccc(Cl)cc3)n1)CCN(Cc1cccn1C)CC2,"inconclusive: 11.2 µM [inhibitor, partial curve, poor fit]",,
CC(C)CCNC[C@H]1O[C@H](Cc2cc(CN3CCCCC3)on2)CC[C@@H]1O,"inconclusive: 7.94 µM [inhibitor, partial curve, poor fit]",,
N#Cc1ccc([S+](=O)([O-])N2CCC3(CC2)OCCN(CC2CC2)C3=O)cc1,,inactive [at 44.1 µM],
CCN(C(=O)c1cn(-c2ccc(OC)cc2)c(=O)c2ccccc12)c1cccc(Cl)c1,"inconclusive: 12.6 µM [inhibitor, partial curve, poor fit]",,
O=C(C[C@H]1NC(=O)c2ccccc2NC1=O)NCCc1ccc(O)cc1,"inconclusive: 20 µM [inhibitor, single point]",,
Cc1cc(Cn2cc3c4c(cccc42)[C@H](CC(C)C)N[C@H](C(=O)NCCN2CCOCC2)C3)no1,,,inactive: -6.43%
CCc1nc(-c2c3n(c(=O)n(CC(=O)NCc4cccs4)c2=O)CCCC3)no1,,,inactive: 15.7%
Cc1cc(C)c(CNC(=O)c2cc(-c3ccccc3C)cc3c2OCCN3C)c(=O)[nH]1,"inconclusive: 1 µM [inhibitor, partial curve, poor fit]",,
COc1ccc(C)cc1-n1c(-c2ccc(C)cc2)cc2c1CC(C)(C)CC2=O,"inconclusive: 10 µM [inhibitor, partial curve, poor fit]",,
Cc1ncc(CN2CCC(C(=O)O)(n3ccc(-c4ccco4)n3)CC2)[nH]1,,,inactive: -4.31%
COCc1cc(C)nc2sc3c(c12)NC(c1ccc(O)cc1)N(c1ccc(C)cc1)C3=O (stereo unspecified),"inconclusive: 11.2 µM [inhibitor, partial curve, poor fit]",,
COc1cc(Cl)ccc1C(=O)NC1CCN(c2cc(C(F)(F)F)nc(C)n2)CC1,active: 5.01 µM,,
Clc1ccc2nc(N3CCC(NC4CCSC4)CC3)sc2c1 (stereo unspecified),"inconclusive: 20 µM [inhibitor, single point]",,
CCOc1ccc(C2C(C(N)=O)=C(C)Nc3nc(-c4ccc(OC)cc4)nn32)cc1 (stereo unspecified),"inconclusive: 20 µM [inhibitor, single point]",,
COc1cccc(CCC(=O)Nc2ccc(-c3nnc4n3CCCC4)cc2)c1,"inconclusive: 3.98 µM [inhibitor, single point]",,
COc1ccccc1Nc1nn2c(=O)c3ccc(C(=O)NC4CCC(C)CC4)cc3nc2s1 (stereo unspecified),"inconclusive: 3.98 µM [inhibitor, partial curve]",,

Compound,Potency,outcome,"activity, negative = inhibition"
CCN(CC)C(=O)N1CC(Oc2ccccc2-c2nc(-c3cnccn3)no2)C1,"inconclusive: 3.98 µM [inhibitor, full curve, poor fit]",,
O=c1[nH]c(C2CCCN(Cc3ccsc3)C2)nn1-c1ccc(Cl)cc1 (stereo unspecified),"inconclusive: 4.47 µM [inhibitor, partial curve]",,
Cc1ccc(-c2ccc3nnc(CNC(=O)C4CCCC4)n3n2)cc1C,,,inactive: -5.57%
OCC1CCN(c2ccc(-c3nc(CCCc4ccccc4)no3)cn2)CC1,"inconclusive: 4.47 µM [inhibitor, partial curve, poor fit]",,
CC1(C)N=C(c2ccccc2)C(=O)N1CC(=O)NC1CCc2ccccc21 (stereo unspecified),,,inactive: -13.4%
CC(C)(C)OC(=O)N1CC(N2CCc3ccccc32)C1,"inconclusive: 11.2 µM [inhibitor, partial curve]",,
O=C1CCCCCN1C1CCN(Cc2cccc3ccccc23)CC1,"inconclusive: 5.62 µM [inhibitor, single point]",,
Cc1ccc(C(=O)N2CCN(C(=O)c3nnn4c3COC(c3ccc(Cl)cc3)C4)CC2)s1 (stereo unspecified),active: 2.82 µM,,
CCN(C(=O)CSc1nc(-c2ccccc2)no1)c1cccc(C)c1,"inconclusive: 17.8 µM [inhibitor, single point]",,
COC[C@@H]1CN(C(=O)c2nn(C)c3ccccc23)C[C@H]1C(N)=O,,,inactive: -9.1%
Cc1noc(C)c1C(=O)N[C@H]1[C@H](O)[C@H](O)C[C@@H]1c1ccccc1,,,inactive: 12.1% [at 44.1 µM]
COCC1CN(Cc2cccc(C(F)(F)F)c2)CC12CCNCC2 (stereo unspecified),"inconclusive: 1.26 µM [inhibitor, full curve, poor fit]",,
COc1cc2c(cc1OCc1ccncc1)NC(=O)C21CCN(Cc2ccccc2O)CC1,"inconclusive: 1.78 µM [inhibitor, full curve, poor fit]",,
CCCN(CC1CC1)C(=O)c1ccc2c(c1)C(O)CCCCCN2CCOC (stereo unspecified),"inconclusive: 1.12 µM [inhibitor, full curve, poor fit]",,
Fc1ccc(Nc2nc(-c3cccc(Cl)c3)c3c(n2)-c2ccccc2OC3)cc1,"inconclusive: 20 µM [inhibitor, single point]",,
CSc1ccc(-c2nc(CN3CCOCC(CN(C)C)C3)c(C)o2)cc1 (stereo unspecified),,,inactive: -29.8%
O=C(Nc1cccc(C(=O)N2CCN(c3ccccc3)CC2)c1)c1nsc2ccccc12,"inconclusive: 17.8 µM [inhibitor, single point]",,
CO[C@H]1C(=O)N(C(C)C)[C@H]1C1CCN(C(=O)Cc2ccncc2)CC1,,,inactive: 29.6%
COc1ccc(C(=O)Nc2ccccc2)cc1S(=O)(=O)Nc1ccc(Br)cc1,"inconclusive: 17.8 µM [inhibitor, single point]",,
O=C(OCc1cc(=O)n2nc(C3CC3)sc2n1)c1ccc(NC(=O)c2ccccc2Cl)cc1,"inconclusive: 7.94 µM [inhibitor, partial curve, poor fit]",,
